Measured values taken from PubChem BioAssay AID504339 (National Center for Advancing Translational Sciences (NCATS), 2011).
Where “and” joins values, the source holds several entries; their conditions need not be identical. Equal values may be shown once. Among all 390,000 compounds or so, about 17,000 (4.4%) were called active. Inconclusive results, whose numbers are uncertain, are shown with a selection of clear calls. Calls follow the shape of the dose curve; as a rule, active = well fitted inhibition curve with a large enough effect; inconclusive = small, poorly fitted or top-dose-only effect; inactive = no such curve, though single readings can be large or run the other way. Where the call is inconclusive, the potency comes from a doubtful curve fit.

Target: Lysine-specific demethylase 4A (Homo sapiens) (UniProt O75164)
Chain of UniProt O75164 (O75164 whole entry, looked up, the tested form may be a part): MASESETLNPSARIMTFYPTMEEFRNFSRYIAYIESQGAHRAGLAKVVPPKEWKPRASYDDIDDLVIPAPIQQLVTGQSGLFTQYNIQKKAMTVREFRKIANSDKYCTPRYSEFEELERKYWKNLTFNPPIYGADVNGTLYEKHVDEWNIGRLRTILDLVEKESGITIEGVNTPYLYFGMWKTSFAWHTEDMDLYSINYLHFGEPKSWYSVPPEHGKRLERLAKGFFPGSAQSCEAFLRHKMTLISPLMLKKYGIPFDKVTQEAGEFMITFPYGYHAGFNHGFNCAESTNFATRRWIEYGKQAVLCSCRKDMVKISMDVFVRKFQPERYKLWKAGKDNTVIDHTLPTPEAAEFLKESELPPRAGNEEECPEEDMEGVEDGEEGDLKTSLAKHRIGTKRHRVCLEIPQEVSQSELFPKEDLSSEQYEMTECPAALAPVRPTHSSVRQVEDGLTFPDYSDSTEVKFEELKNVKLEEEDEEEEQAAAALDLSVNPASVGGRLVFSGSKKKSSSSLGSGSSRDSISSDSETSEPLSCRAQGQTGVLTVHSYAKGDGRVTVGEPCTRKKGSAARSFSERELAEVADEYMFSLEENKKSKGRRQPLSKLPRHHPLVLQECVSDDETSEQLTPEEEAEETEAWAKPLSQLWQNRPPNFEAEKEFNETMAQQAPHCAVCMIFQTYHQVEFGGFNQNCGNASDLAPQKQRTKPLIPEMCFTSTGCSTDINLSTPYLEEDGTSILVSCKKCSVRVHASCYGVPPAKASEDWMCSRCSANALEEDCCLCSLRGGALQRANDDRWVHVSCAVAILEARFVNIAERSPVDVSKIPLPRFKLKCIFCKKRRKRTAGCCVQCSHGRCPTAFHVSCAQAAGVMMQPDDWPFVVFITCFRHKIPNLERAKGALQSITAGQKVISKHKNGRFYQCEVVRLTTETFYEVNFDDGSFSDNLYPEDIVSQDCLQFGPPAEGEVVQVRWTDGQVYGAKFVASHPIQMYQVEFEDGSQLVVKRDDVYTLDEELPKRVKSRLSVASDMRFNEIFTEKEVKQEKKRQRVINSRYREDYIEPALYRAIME
Assay: qHTS Assay for Inhibitors of JMJD2A-Tudor Domain; also: nearly all actives have a fitted effect of over 50% in size
Conditions: AlphaScreen JMJD2A-Tudor / H3K4me3 peptide binding; activity change, negative = inhibition: at 114 µM (top of the series)
% is scaled to controls: 0 for no effect and ±100 for the full control effect; potency is read from the fitted curve at half-maximal effect; tags tell the direction and shape of the fitted curve.

Potency, active:
O=C(c1cc(-n2cnnc2)ccc1Cl)N1CCN(c2nc(-c3ccccc3)cs2)CC1 56.2 µM, CC(=O)Nc1ccc(Oc2cc(NC(C)=O)cc([N+](=O)[O-])c2)cc1 17.8 µM, Cc1cccc(N2CCN(C(=O)c3ccc4c(c3)c(C)c(C)n4C)CC2C)c1 (centres undefined) 56.2 µM and 28.2 µM, CCC(C)NCCOc1cccc(Br)c1 (centres undefined) 4.47 µM, CCOc1cc(C=NN=C2c3ccccc3-c3ccccc32)ccc1O 25.1 µM, CN1CCCN(Cc2ccccc2C(F)(F)F)CC1 0.708 µM, COc1ccc(N2CCN(c3ccnc4cc(Cl)ccc34)CC2)cc1 35.5 µM, O=C(N/N=C/c1ccc(C(=O)O)cc1)C1=NNC(c2ccccc2)(c2ccccc2)C1 79.4 µM, O=C(CCS(=O)(=O)c1ccc(Br)cc1)NC1CCCC1 50.1 µM, Cc1cccc(N2C(=O)CC(Sc3ccccc3C(=O)O)C2=O)c1 (centres undefined) 44.7 µM, O=[N+]([O-])c1cc(C(F)(F)F)ccc1NCCc1c[nH]c2ccc(O)cc12 22.4 µM, COc1ccc2cc(-c3[nH]ncc3CN3CCCC3c3nonc3C)ccc2c1 (centres undefined) 79.4 µM, CC(C(=O)Nc1ccc(C(F)(F)F)cc1)N(C)CC(=O)N1CCN(Cc2ccccc2)CC1 (centres undefined) 0.891 µM, CN(C)S(=O)(=O)c1cccc(C(=O)Nc2n[nH]c(C(F)(F)F)n2)c1 7.08 µM, O=C(CN1CCN(S(=O)(=O)c2ccccc2F)CC1)N1CCc2ccccc2C1 0.794 µM

Potency, inactive:
Cc1ccc(Nc2nc(N3CCOCC3)c3ccccc3n2)cc1, COc1ccc(Br)cc1CNC(=O)C1COc2ccccc2C1 (centres undefined), O=C(N1CCOCC1)N1CCN(S(=O)(=O)N2CCOCC2)CC1, O=c1[nH]c2c(s1)C=Nc1ccccc1N2, Cc1ccc2oc3c(c(=O)c2c1)C(c1ccc(OCC(N)=O)cc1)N(Cc1ccc2c(c1)OCO2)C3=O (centres undefined), Cc1ccc(N(CC(C)C)S(=O)(=O)c2nnc(NC(=O)c3cccs3)s2)cc1, C[C@@H]1COC(=O)[C@H](CC(=O)OC(C)(C)C)C/C=C\C[C@@H](CC(=O)N[C@H](CO)Cc2ccccc2)C(=O)N1, COc1cc(NC(=S)NC(=O)c2ccco2)ccc1NC(=O)C(C)C, CSc1nccc(-c2sc(SC)c(C#N)c2-c2ccccc2)n1, C/C(O)=c1/cnc2nc3ccccc3n2c1=O, CCn1c(=O)c2sccc2n2c(CCCC(=O)Nc3ccc(C)cc3)nnc12, CCOC(=O)NCc1cc(-c2nn(C)c(=O)c3ccccc23)ccc1C, Cc1cc(O)c(C(c2ccc(F)cc2)N2CCN(c3ccccc3)CC2)c(=O)n1Cc1ccco1 (centres undefined)

Potency, inconclusive:
O=C1CCc2cc(S(=O)(=O)Nc3cccc(-c4ccccc4)c3)ccc2N1 63.1 µM [inhibitor, partial curve], CN(C)c1ccc(/C=N/NC(=O)c2ccc(Cl)cc2)cc1 89.1 µM [inhibitor, partial curve], CC(=O)Nc1cc(C(=O)N2CCc3ccccc3C2)ccc1Sc1ccc(C)cc1 25.1 µM [inhibitor, single point], Cc1oc(=O)c(NC(=O)c2ccc(Cl)cc2)cc1C(=O)c1ccccc1 89.1 µM [inhibitor, single point], CCN(CC)c1ccc(NC(=O)C2CCCC2)cc1 20 µM [inhibitor, full curve], O=C(CCCN1C(=O)/C(=C\c2cccs2)SC1=S)Nc1ccccn1 10 µM [inhibitor, partial curve], O=C(NC1CCN(Cc2ccccc2)CC1)C1CCN(S(=O)(=O)c2ccc(Cl)cc2)CC1 1.12 µM [inhibitor, full curve], O=C(N/N=C/c1ccco1)c1cccc(S(=O)(=O)Nc2ccccc2Cl)c1 50.1 µM [inhibitor, partial curve], CC(C)(C)c1ccc(C(=O)N/C(=C\c2cccs2)C(=O)NCc2ccco2)cc1 56.2 µM [inhibitor, partial curve], CN1CCN(S(=O)(=O)c2ccc(N3CCN(c4ccccc4O)CC3)c([N+](=O)[O-])c2)CC1 56.2 µM [inhibitor, partial curve], CN(C)c1cccc(C(=O)NC2CCCc3ccccc32)c1 (centres undefined) 56.2 µM [inhibitor, partial curve], COc1ccc2[nH]c(=O)c(-c3noc(-c4ccccc4)n3)cc2c1 56.2 µM [inhibitor, partial curve], COc1cccc(N2CCN(C(c3ccccn3)c3nnnn3C(C)(C)C)CC2)c1 (centres undefined) 56.2 µM [inhibitor, partial curve], CNCC(O)CN(c1ccccc1)c1ccccc1 (centres undefined) 89.1 µM [inhibitor, partial curve, poor fit], Cc1ccc(C)c(-c2nc3ccc(N)cc3[nH]2)c1 22.4 µM [inhibitor, partial curve], c1ccc2c(C3=NNC(=NC4CCCCC4)SC3)c[nH]c2c1 56.2 µM [inhibitor, partial curve], COc1ccc(C(=O)NCC(c2ccc3c(c2)OCO3)N2CCN(c3ccc(F)cc3)CC2)cc1 (centres undefined) 39.8 µM [inhibitor, partial curve], CCN(CC)c1ccc(CNc2nc3ccccc3n2CCN2CCOCC2)cc1 31.6 µM [inhibitor, partial curve], CCn1c(CSc2nc3ccccc3[nH]2)nc2cc(C(=O)O)ccc21 25.1 µM [inhibitor, full curve, poor fit], Cc1ccc2c(c1)/C(=C/c1ccc(F)cc1)C(=O)N2 11.2 µM [inhibitor, full curve], C=CCOc1cccc(C2C(C(=O)c3ccc(C)o3)=C(O)C(=O)N2c2nccs2)c1 (centres undefined) 79.4 µM [inhibitor, single point], O=C(NC1CCCCC1)Oc1cccc2ccccc12 15.8 µM [inhibitor, full curve], COc1ccc(-c2nc(NC(=O)C3CC(=O)N(c4ccc5c(c4)OCCO5)C3)sc2C)cc1 (centres undefined) 10 µM [inhibitor, partial curve] and 28.2 µM [inhibitor, full curve], N#CC1=C(N)NC(SCc2ccc(Cl)cc2)=C(C#N)C12CCCCC2 50.1 µM [inhibitor, partial curve], Cc1noc(C)c1-c1ccc2ncnc(NC(C)c3ccco3)c2c1 (centres undefined) 56.2 µM [inhibitor, partial curve] and 89.1 µM [inhibitor, partial curve], CC(C)c1ccc(S(=O)(=O)N2CCN(CC(=O)Nc3ccc4c(c3)OCO4)CC2)cc1 56.2 µM [inhibitor, partial curve], N#CN=C1SCCS1 3.98 µM [inhibitor, single point], CCCCC(=O)Nc1cc(NC(=O)CCCC)cc(C(=O)O)c1 50.1 µM [inhibitor, partial curve], CCOc1ccc(-n2ccnc2SCC(=O)NCc2ccc3c(c2)OCO3)cc1 56.2 µM [inhibitor, partial curve, poor fit], CCCCCOCC1CC(C/C(C)=N/NC(N)=S)C(=O)O1 (centres undefined) 56.2 µM [inhibitor, partial curve], CCCn1c(SCC(=O)NCc2ccc(Cl)cc2)n[nH]c1=O 44.7 µM [inhibitor, partial curve], CCCNC(=O)CCCCn1c(=S)[nH]c2c([nH]c3ccc(OC)cc32)c1=O 12.6 µM [inhibitor, full curve], O=C(COC(=O)c1cc[n+]([O-])cc1)Nc1ccc([N+](=O)[O-])cc1 31.6 µM [inhibitor, single point], COc1cccc(/C=N/NC(=O)N/N=C/c2cccc(OC)c2O)c1O 63.1 µM [inhibitor, partial curve, poor fit], CC(C)(C)OC(=O)N1C[C@H](O)C[C@H]1C(=O)OCC(=O)c1ccc([N+](=O)[O-])cc1 15.8 µM [inhibitor, full curve], COc1ccccc1/C=C/CN1CCC(Oc2ccc(C(=O)N3CCCCC3)cc2)CC1 17.8 µM [inhibitor, full curve, poor fit], C=CCN(CC=C)C(=S)NC(=O)c1ccc(-c2ccccc2)cc1 35.5 µM [inhibitor, partial curve], CCn1c(O)c(C=NCc2ccccc2)sc1=S 56.2 µM [inhibitor, partial curve], CCN(CC)c1ccc(NC(=O)Cn2cc3c(n2)CCC(C)C3)c(C)c1 (centres undefined) 22.4 µM [inhibitor, full curve]

Activity change, negative = inhibition, inconclusive:
Cc1cc(/C=N/Nc2ccc([N+](=O)[O-])cn2)c(C)n1-c1ccc(C(=O)O)cc1 -83.3% [inhibitor]

Activity change, negative = inhibition, inactive:
C=CCn1c(C)csc1=Nc1ccc(C(C)=O)cc1 -5.26% [at 11.4 µM]
